The list shows a part of the results.

Experiment [1] relates to HSkMC (human skeletal muscle cells). In words: cytotoxicity call (relative viability < 0.9). Particulars: 10 µM.
The subject of experiment [2] is HepG2. In words: cytotoxicity call (relative viability < 0.9). Particulars: 10 µM.
The subject of experiment [3] is S. aureus RN4220. In words: growth inhibition call (relative growth <= 0.2). Particulars: 50 µM.

Turning to `COC(=O)Cc1cc(=O)n(-c2ccccc2)[nH]1`, the cytotoxicity call in experiment [1] and in experiment [2] was “inactive” throughout. In addition, the growth inhibition call in experiment [3] is “inactive”.
Turning to `C[C@H](CO)N1C[C@H](C)[C@H](CN(C)Cc2ccc(C(F)(F)F)cc2)Oc2ccc(NC(=O)Nc3ccccc3)cc2C1=O`, the cytotoxicity call in experiment [1] is “inactive”. For the same compound, in experiment [2], the cytotoxicity call is “active”. Further, in experiment [3], the growth inhibition call was “inactive”.
As to `CC(C)NC(=O)N(C)C[C@H]1Oc2ccc(NC(=O)Nc3ccc4c(c3)OCO4)cc2C(=O)N([C@H](C)CO)C[C@@H]1C`, the cytotoxicity call in experiment [1] and in experiment [2] was “inactive” each time. Moreover, in experiment [3], the growth inhibition call is “inactive”.
Turning to `C/C=C/C1=C(C(=O)O)N2C(=O)[C@@H](NC(=O)[C@H](N)c3ccc(O)cc3)[C@H]2SC1`, the cytotoxicity call in experiment [1] and in experiment [2] was “inactive” each time. For the same compound, the growth inhibition call in experiment [3] is “active”.
On to `O=C(C[C@@H]1C[C@H]2c3cc(NS(=O)(=O)c4ccc(F)cc4)ccc3O[C@H]2[C@H](CO)O1)NCc1cccnc1`, for which the cytotoxicity call in experiment [1] and in experiment [2] was “inactive” in each case. Also, in experiment [3], the growth inhibition call is “inactive”.
As to `C[C@H]1CN([C@@H](C)CO)S(=O)(=O)c2ccc(C#CC3(O)CCCC3)cc2O[C@@H]1CN(C)C(=O)Nc1ccccc1`, the cytotoxicity call in experiment [1] and in experiment [2] was “inactive” throughout. Moreover, the growth inhibition call in experiment [3] is “inactive”.
As for `COc1ccc(S(=O)(=O)N(C)C[C@H]2OCCCC[C@H](C)Oc3ccc(NC(=O)C4CCCCC4)cc3C(=O)N([C@H](C)CO)C[C@H]2C)cc1`, the cytotoxicity call in experiment [1] and in experiment [2] was “inactive” in each case. Further, the growth inhibition call in experiment [3] is “inactive”.
On to `COCC(=O)Nc1ccc2c(c1)C(=O)N(C)[C@@H]1CC[C@@H](CC(=O)NC3Cc4ccccc4C3)O[C@H]1CO2`, for which the cytotoxicity call in experiment [1] and in experiment [2] was “inactive” throughout. Further, the growth inhibition call in experiment [3] was “inactive”.
As to `C[C@@H]1CN([C@@H](C)CO)S(=O)(=O)c2ccc(C#Cc3ccccc3)cc2O[C@H]1CN(C)C(=O)c1ccccn1`, the cytotoxicity call in experiment [1] and in experiment [2] was “inactive” in each case. In experiment [3], the growth inhibition call is “inactive”.
Take `C[C@@H](O)C[C@H]1CC[C@@H](O)[C@@H](C)C(=O)O[C@@H](C[C@@H](C)O)CC[C@@H](O)[C@@H](C)C(=O)O1`: the cytotoxicity call in experiment [1] and in experiment [2] was “inactive” in each case. For the same compound, in experiment [3], the growth inhibition call was “inactive”.

The record behind these values is the antibiotic and cytotoxicity screens of Wong et al. (2023).
